Among all 350,000 compounds or so, about 9,900 (2.8%) were called active. This list was built around the results that the source calls inconclusive (neither active nor inactive); the mix of calls is not that of the screen. Calls follow the shape of the dose curve; as a rule, active = well fitted activation curve with a large enough effect; inconclusive = small, poorly fitted or top-dose-only effect; inactive = no such curve, though single readings can be large or run the other way. Potencies of inconclusive entries are left out as doubtful fits.
Assay: A quantitative high throughput screen for small molecules that induce DNA re-replication in MCF 10a normal breast cells. Also: nearly all actives have a fitted effect of over 50% in size. As to activity, positive = re-replication: % of control where 0% means no effect.
Conditions: MCF 10A DNA re-replication, Hoechst nuclear intensity, 48 h; activity, positive = re-replication: at 46.1 µM (top of the series)
In the case of `CN(C(=O)CSc1nc2scc(-c3ccccc3)c2c(=O)[nH]1)c1ccccc1`, the Potency is reported as inconclusive [activator, single point].
In the case of `Cc1nc(NC(=O)CSc2nc3cccnc3n2Cc2ccccc2)sc1C`, the Potency is reported as active: 23.1 µM.
For `Oc1ccc(-c2cnns2)c(O)c1`, the Potency was inconclusive [activator, single point].
For `O=C(CNS(=O)(=O)c1ccccc1)NNC(=O)C(Cl)Cl`, the “activity, positive = re-replication” value was inactive: -0.968%.
With `O=C(CN1c2ccccc2Sc2ccccc21)NNC(=O)Nc1ccc(Cl)cc1` the Potency was inconclusive [activator, single point].
In the case of `CCOC(=O)N1CCC(n2c(SCC(=O)N3CCC(C)CC3)nc3ccccc3c2=O)CC1`, the Potency is reported as inconclusive [activator, single point].
For `Cc1ccc(OCC(=O)N/N=C/C=C/c2ccco2)c(Br)c1`, the Potency was inconclusive [activator, single point].
For `Cc1ccc2c(c1)C(C)CC(C)(C)N2C(=O)CN1CCN(C)CC1` (stereo not given), the “activity, positive = re-replication” value was inactive: 17.9%.
In the case of `c1ccc2c(c1)ccc1[nH]c3c(c12)CCCC3`, the Potency is reported as inconclusive [activator, partial curve, poor fit].
For `Cc1ccc(Nc2cc(C)nc3nnnn23)cc1`, the “activity, positive = re-replication” value was inactive: 0.0335%.
In the case of `Cc1oc2c(cc(NS(=O)(=O)c3ccc(Cl)cc3)c3ccccc32)c1C(=O)O`, the Potency is reported as inconclusive [activator, partial curve, poor fit].
For `CCOC(=O)c1cnc(Nc2nc3ccccc3o2)nc1CSC(=S)N(CC)CC`, the Potency was inconclusive [activator, single point].
For `CCc1ccc(N(C2C=CS(=O)(=O)C2)S(=O)(=O)c2ccccc2)cc1` (stereo not given), the Potency was inconclusive [activator, full curve, poor fit].
In the case of `COc1ccc(NC(=O)C2CC(=O)N(CCc3ccc(Cl)cc3)C2)cc1` (stereo not given), the “activity, positive = re-replication” value is reported as inactive: -0.557%.
In the case of `CCCCc1cc(=O)oc2cc(O)ccc12`, the Potency is reported as inconclusive [activator, partial curve, poor fit].
For `CN1CCN(NC(=O)c2cn(-c3ccccc3)nc2-c2cccc(Br)c2)CC1`, the “activity, positive = re-replication” value was inactive: 12.4%.
In the case of `CN(c1ccc(C(=O)NCCSCc2ccc(Cl)cc2)cc1)S(=O)(=O)c1ccccc1`, the Potency is reported as inconclusive [activator, partial curve].
In the case of `Cc1ccccc1C(=O)N1CCN(c2ccc([N+](=O)[O-])c(N3CCOCC3)c2)CC1`, the Potency is reported as inconclusive [activator, partial curve, poor fit].
For `COc1ccc(OC)c(N(C)S(=O)(=O)c2cc3c(cc2C)NC(=O)CO3)c1`, the “activity, positive = re-replication” value was inactive: 7.17%.
In the case of `COc1ccc(/C=N/n2c(N)nc(-c3ccccc3)c2-c2ccccc2)cc1`, the Potency is reported as inconclusive [activator, single point].
In the case of `COc1ccccc1OCCCCN1CCCCC1`, the “activity, positive = re-replication” value is reported as inactive: -0.23%.
In the case of `CCCCC(CC)CNC(=O)/C=C/c1ccc(F)cc1` (stereo not given), the Potency is reported as inconclusive [activator, single point].
In the case of `CCCCc1ncc(CN2CCC(n3nccc3NC(=O)C(OC)c3ccccc3)CC2)[nH]1` (stereo not given), the “activity, positive = re-replication” value is reported as inactive: -31.4%.
With `Oc1ccc(/C=N/NC(=S)Nc2cccnc2)c(O)c1` the Potency was inconclusive [activator, single point].
In the case of `CCc1nnc(NS(=O)(=O)c2ccccc2)s1`, the Potency is reported as inconclusive [activator, partial curve, poor fit].
For `CCN(CC)c1ccc(/C=N/NC(=S)NCc2ccccc2)cc1`, the Potency was active: 20.6 µM.
In the case of `CC(C)c1ccc(/C=C/c2ccc(=O)n(C)n2)cc1`, the Potency is reported as inconclusive [activator, partial curve, poor fit].
For `O=C1CCC(C(=O)N2CCCCCC2)CN1CCc1ccc(Cl)cc1` (stereo not given), the “activity, positive = re-replication” value was inactive: 0.399%.
With `NC(=O)c1nsc(C(=O)N(CC(=O)NC2CCCCC2)c2cccc(F)c2)c1N` the Potency was inconclusive [activator, partial curve, poor fit].
For `CCCCOc1ccccc1C1C(C(=O)OC)=CN(CC)C=C1C(=O)OC`, the Potency was inconclusive [activator, full curve].
For `Cc1c(OC(C)C(=O)NCCCN2CCOCC2)ccc2c1oc(=O)c1ccccc12` (stereo not given), the Potency was inconclusive [activator, single point].
In the case of `COc1ccc(/C=C(/C(=O)c2ccc(Cl)cc2Cl)n2cncn2)cc1`, the Potency is reported as inconclusive [activator, single point].
With `CCn1c(SCC(=O)Nc2ccc(Cl)cc2)nc2nc3c(cc2c1=O)CCCC3` the “activity, positive = re-replication” value was inactive: 14.1%.
With `COC(=O)c1cc2c(C)c(C)c3ccccn3c-2c1C(=O)OC` the Potency was inconclusive [activator, partial curve, poor fit].
For `O=C(Nc1ccc(Oc2ncnc3cc(Cl)ccc23)nc1)Nc1cccc(C(F)(F)F)c1`, the Potency was inconclusive [activator, single point].
For `O=Cc1ccccc1-c1cn(CCCOCc2ccccc2)nn1`, the Potency was inconclusive [activator, single point].
For `COc1ccc(/C(C)=N\NS(C)(=O)=O)c(OC)c1`, the “activity, positive = re-replication” value was inactive: -5.51%.
For `Cc1ccccc1CN(C)CCc1ccccn1`, the Potency was active: 0.651 µM.
In the case of `Cc1ccc(-c2cc(C(=O)Nc3cnn(C45CC6CC(CC(C6)C4)C5)c3)no2)cc1`, the Potency is reported as inconclusive [activator, partial curve, poor fit].
In the case of `COc1ccccc1-c1ccc(SCc2ccc(C)cc2)nn1`, the Potency is reported as inconclusive [activator, single point].
In the case of `COc1ccc(S(=O)(=O)Cc2ccc(C(=O)N3CCN(c4cccc(C)c4)C(C)C3)o2)cc1` (stereo not given), the Potency is reported as active: 6.51 µM.
For `COCc1cc(=O)[nH]c(/N=C(\N)Nc2c(F)cccc2F)n1`, the Potency was inconclusive [activator, full curve, poor fit].
For `COc1ccc([N+](=O)[O-])cc1N(CC(=O)NCc1ccco1)S(C)(=O)=O`, the “activity, positive = re-replication” value was inactive: 26.5%.
In the case of `Cc1ccc(N/N=C(\C#N)C(N)=S)cc1C`, the Potency is reported as inconclusive [activator, single point].
For `COC(=O)c1cc(C(=O)c2ccc(Cl)cc2)n2c(=O)/c(=C\N(C)C)sc12`, the Potency was inconclusive [activator, full curve].
For `COc1cccc(C(=O)Nc2cccc(-c3ccc(N4CCOCC4)nn3)c2)c1OC`, the Potency was inconclusive [activator, single point].
For `Cc1cc(C(=O)NC2CCCc3c2cnn3-c2cccc(C)c2C)c(C)o1` (stereo not given), the Potency was inconclusive [activator, single point].
In the case of `O=C(Nc1cccc(F)c1)c1ccco1`, the Potency is reported as inconclusive [activator, partial curve, poor fit].
With `Cc1ccc(C)c(NC(=S)N/N=C2\CCc3ccccc32)c1` the Potency was inconclusive [activator, single point].
In the case of `Cc1ccc(CNC(=O)C2CC2c2ccccc2)cc1` (stereo not given), the Potency is reported as inconclusive [activator, single point].
For `CC(=O)c1ccc(N2CCN(S(=O)(=O)c3ccc4c(c3)CC(C)N4C(C)=O)CC2)cc1` (stereo not given), the “activity, positive = re-replication” value was inactive: 2.35%.
In the case of `Fc1c(F)c(F)c(N/N=C/c2c[nH]c3ccccc23)c(F)c1F`, the Potency is reported as inconclusive [activator, partial curve, poor fit].
With `CC[C@]1(C(=O)OC)[C@H]2C(=O)N(C)C(=O)[C@H]2[C@H]2CN=C(SCc3ccc(OC)cc3)N21` the Potency was inconclusive [activator, full curve, poor fit].
In the case of `CCC/C=C1/CCCOC(C(=O)NCc2ccccn2)(C(F)(F)F)C1` (stereo not given), the Potency is reported as inconclusive [activator, full curve].
For `Cc1ccc2nc(N3C(=O)C(O)=C(C(=O)c4ccco4)C3c3cccc(O)c3)sc2c1` (stereo not given), the Potency was active: 23.1 µM.
For `CO/N=C(\C(=O)N[C@@H]1C(=O)N2C(C(=O)[O-])=C(C[N+]3(C)CCCC3)CS[C@@H]12)c1csc(N)n1`, the “activity, positive = re-replication” value was inactive: -7.76%.
With `Cc1cccc(NCC(=O)N/N=C\c2c[nH]c3ccccc23)c1` the Potency was inconclusive [activator, full curve, poor fit].
In the case of `CCC1=Nc2cc(C(=O)NCCN3CCCC3)ccc2Sc2ccccc21`, the Potency is reported as inconclusive [activator, single point].
For `CS(=O)(=O)c1ncc(Cl)c(C(=O)Nc2ccc(N3CCOCC3)cc2)n1`, the “activity, positive = re-replication” value was inactive: -4.17%.
With `O=C(Nc1ccccc1)c1cc(N2CCOCC2)nc2ccccc12` the “activity, positive = re-replication” value was inactive: -1.02%.
With `C=CCn1c(SC(F)F)nc2scc(-c3ccco3)c2c1=O` the Potency was active: 2.91 µM.
With `CCCNC(=O)Cn1cnc2sc(C(=O)Nc3cc(OC)c(OC)c(OC)c3)c(C)c2c1=O` the “activity, positive = re-replication” value was inactive: -7.84%.
For `O=C(CCNS(=O)(=O)c1ccc(Cl)cc1)OCC(=O)N1CCN(C(=O)c2ccco2)CC1`, the Potency was inconclusive [activator, single point].
For `O=C/C(=C\Nc1ccccn1)c1nc2cc(Cl)ccc2o1`, the Potency was active: 15.8 µM.
With `COc1ccc(NC(=O)c2nc[nH]c2C(=O)N[C@@H](C)c2ccccc2)cc1` the Potency was inconclusive [activator, single point].
With `Cc1ccc(C2CC(=O)Oc3cc(C)c(Br)c(C)c32)cc1` (stereo not given) the Potency was inconclusive [activator, single point].
With `CCN(CC(=O)Nc1sc2c(c1C#N)CCC(C)C2)Cc1nc2ccccc2c(=O)[nH]1` (stereo not given) the “activity, positive = re-replication” value was inactive: 59.2%.
For `Cc1ccc(OCCOC(=O)Nc2ccccc2)cc1`, the “activity, positive = re-replication” value was inactive: 3.49%.
In the case of `Oc1ccc(Br)cc1/C=N/NC(=S)NCCc1ccccc1`, the Potency is reported as inconclusive [activator, single point].
With `COc1ccc(NS(=O)(=O)c2cc(OC)ccc2NC(=O)c2cc(C)oc2C)cc1` the Potency was active: 13 µM.
Potency is read from the fitted curve at half-maximal effect; tags tell the direction and shape of the fitted curve.
